Consider one molecule from patent EP4613276A2 (Actym Therapeutics, Inc., dated 2025).

This test has as its target T1, human TGF-β1 (R&D Systems) (human, UniProt P01137 partial chain).
T1 construct: Bought reagent used in the direct ELISA
Nature of the test: direct ELISA of transfected HEK293T supernatant with human TGF-β1; the grade is printed as the payload's expression level.

T1 sequence (P01137 279-390 limits assumed): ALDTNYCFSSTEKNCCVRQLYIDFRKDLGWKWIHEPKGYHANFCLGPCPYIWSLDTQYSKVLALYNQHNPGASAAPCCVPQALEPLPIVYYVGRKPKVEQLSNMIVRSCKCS

B1: human soluble TGFβ receptor II fused with a human IgG1 Fc (Fc fusion)
chain: TIPPHVQKSVNNDMIVTDNNGAVKFPQLCKFCDVRFSTCDNQKSCMSNCSITSICEKPQEVCVAVWRKNDENITLETVCHDPKLPYHDFILEDAASPKCIMKEKKKPGETFFMCSCSSDECNDNIIFSEEYNTSNPD[not shown - human IgG1 Fc]
notes: Tested as HEK293T supernatant; also called hu sTGFβRII-Fc
As for B1, the binding result is recorded as “binds”.
